From PubChem BioAssay AID624296 (National Center for Advancing Translational Sciences (NCATS), 2012)
Hit rate of the full screen: of about 350,000 compounds, about 9,900 (2.8%) were called active. This list was built around the results that the source calls inconclusive (neither active nor inactive); the mix of calls is not that of the screen. Calls come from the whole dose curve; as a rule, active = well fitted activation curve with a large enough effect; inconclusive = small, poorly fitted or top-dose-only effect; inactive = no such curve, though single readings can be large or run the other way. No potency is given beside an inconclusive call; the fits are too rough.

test: A quantitative high throughput screen for small molecules that induce DNA re-replication in MCF 10a normal breast cells.; note: nearly all actives have a fitted effect of over 50% in size; for activity, positive = re-replication: % of control where 0% means no effect; conditions: MCF 10A DNA re-replication, Hoechst nuclear intensity, 48 h; activity, positive = re-replication: at 46.1 µM (top of the series)
Potency is the fitted concentration of half-maximal effect; tags give direction and shape of the fitted curve.

SMILES	Potency	activity, positive = re-replication
Oc1ccccc1N=Cc1c(O)ccc2ccccc12	inconclusive [activator, partial curve, poor fit]	–
CCOC(=O)c1nc(NNC(=O)c2ccc([N+](=O)[O-])cc2)sc1C	–	inactive: 25.3%
COc1ccc(N2CCN(C(=O)CNC(=O)c3cccc(Br)c3)CC2)cc1	–	inactive: 7.73%
Cc1cccc(C)c1NC(=S)NCCc1ccc(O)c(O)c1	inconclusive [activator, single point]	–
COc1ccc(NC(=O)Nc2nc(C)cc(C)n2)c(OC)c1	–	inactive: 10.9%
CCOC(=O)N1CCC(Nc2nc3ccccc3nc2NS(=O)(=O)c2ccc(Cl)cc2)CC1	–	inactive: -0.0625%
O=C(Nc1ncc(Cc2ccc(SC(F)F)cc2)s1)c1ccccc1	inconclusive [activator, full curve, poor fit]	–
CCOC(=O)C1CCN(S(=O)(=O)c2ccc(-n3cnnn3)c(C)c2)CC1	active: 11.6 µM	–
COC(=O)c1cc2c(=O)n3ccccc3nc2n(Cc2cccnc2)c1=N	inconclusive [activator, single point]	–
CCCCn1nnnc1SCC(=O)c1cc(Cl)ccc1OC	–	inactive: 9.56%
CCCCc1ccc(NC(=O)C2CCCC2)cc1	inconclusive [activator, partial curve, poor fit]	–
Clc1ccccc1Cc1noc(CN2CCN(Cc3ccccn3)CC2)n1	–	inactive: 0.238%
Cc1onc(-c2ccccc2Cl)c1C(=O)Nc1cccc(S(=O)(=O)N2CCOCC2)c1	inconclusive [activator, single point]	–
CCCC(=O)NC(=S)Nc1ccc(NC(=O)c2cccs2)cc1	–	inactive: 0.406%
COc1ccc(-c2cc(C(=O)Nc3cc(OC)cc(C(=O)Nc4cccc(C(F)(F)F)c4)c3)[nH]n2)cc1	inconclusive [activator, single point]	–
O=S1(=O)CC=C(CSC(=S)NC2CCS(=O)(=O)C2)C1 (stereo not given)	inconclusive [activator, single point]	–
O=C1C2C3C=CC(CO)(O3)C2C(=O)N1c1ccccc1-c1ccccc1 (stereo not given)	active: 7.31 µM	–
Cc1[nH]c2ccccc2c1C(=O)C(C)OC(=O)c1ccc([N+](=O)[O-])o1 (stereo not given)	active: 23.1 µM	–
CC[C@]12c3[nH]c4ccc(OC)cc4c3CCN1C(=O)C(CC(=O)NCC13CC4CC(CC(C4)C1)C3)C[C@@H]2C(=O)N1CCN(C(=O)c2ccco2)CC1 (stereo not given in full)	inconclusive [activator, partial curve, poor fit]	–
O=C(O)c1ccc2c(c1)nnn2C1CCCCC1	inconclusive [activator, single point]	–
CCOC(=O)c1c(C)n(C)c2cc(-c3cccc(C(F)(F)F)c3)c(O)cc12	–	inactive: 19.6%
COc1ccc(C(=O)C2CN(c3ccccc3)CC2c2ccc(Cl)cc2)cc1 (stereo not given)	inconclusive [activator, full curve, poor fit]	–
CC(=O)c1ccc(Nc2ccc(-c3ccccc3F)nn2)cc1	inconclusive [activator, single point]	–

SMILES	Potency	activity, positive = re-replication
COCCN1C=C(C(=O)OC)C(c2ccc3c(c2)OCO3)C(C(=O)OC)=C1	–	inactive: -21.5%
CCOC(=O)c1c(-c2ccccc2)nc2ccccn12	inconclusive [activator, partial curve, poor fit]	–
Cc1ccc(C(=O)Nc2cccc(S(=O)(=O)N3CCCCC3)c2)cc1[N+](=O)[O-]	inconclusive [activator, single point]	–
CCC(C)(C)c1ccc(OC(=O)c2cccnc2Cl)cc1	–	inactive: -5.32%
N#Cc1ccccc1COc1ccc(/C=C/C(=O)O)cc1	–	inactive: -5.49%
Cc1csc2ncnc(N3CCN(C(=S)Nc4ccc(F)cc4F)CC3)c12	–	inactive: -0.481%
CC(C)CC1(C)N=C(c2ccccc2)C(=S)N1 (stereo not given)	–	inactive: -15.1%
CCN(CC)C(=O)[C@H]1CC(CC(=O)NCC23CC4CC(CC(C4)C2)C3)C(=O)N2CCc3c([nH]c4ccccc34)[C@]12C (stereo not given in full)	inconclusive [activator, single point]	–
CN1C(=O)S/C(=C\c2ccccc2OCc2ccc(C(=O)O)cc2)C1=O	inconclusive [activator, single point]	–
O=C(c1ccco1)N(CCC(c1ccccc1)c1ccco1)Cc1ccccc1 (stereo not given)	inconclusive [activator, single point]	–
COc1ccc(C(=O)c2ccc(N3CCN(C(=O)c4ccc(F)cc4)CC3)c(F)c2)cc1Br	inconclusive [activator, full curve, poor fit]	–
COc1ccccc1-n1c(-c2ccccc2)n[nH]c1=S	inconclusive [activator, single point]	–
COc1ccc(/C=C/C(=O)N2CCN(C)CC2)cc1S(=O)(=O)N1CCCCC1	inconclusive [activator, full curve, poor fit]	–
CCSc1nnc(NC(=O)c2cccc(OCc3c(C)noc3C)c2)s1	inconclusive [activator, single point]	–
Cc1ccc(NC(=O)N2CCc3ccccc32)cc1C	inconclusive [activator, single point]	–
c1ccc(-c2nnnn2-c2ccccn2)cc1	–	inactive: -1.17%
O=C1NC(=S)N(C(=O)c2ccc(F)cc2)/C1=C/c1ccccc1	inconclusive [activator, single point]	–
Oc1ccccc1C=NNC(=S)NN=Cc1ccccc1O	active: 18.4 µM	–
O=c1c(F)cn(C2CCCO2)c(=O)n1Cc1ccccc1Cl (stereo not given)	inconclusive [activator, single point]	–
CCOC(=O)C1CCN(S(=O)(=O)c2ccc(CNC(=O)c3ccccc3)s2)CC1	inconclusive [activator, full curve, poor fit]	–
Cc1ccc(S(=O)(=O)Nc2ccc3c(c2)nc(CCN2CCCC2)n3C)cc1	inconclusive [activator, single point]	–
COc1ccc(CCNC(=S)Nc2cc(C)cc(C)c2)cc1	–	inactive: -6.42%
